In publication PMC4336329 (PLoS ONE, 2015):
Hit rate of the full screen: of about 310,000 compounds, about 2,200 (0.71%) showed an effect of 50% or more. Effects have a minus sign here. The list shows a part of the results.

Target: human ether-à-go-go-related gene (hERG) potassium channel (human, UniProt Q12809)
Test: primary screen, population patch clamp on CHO cells stably expressing hERG

Chain of human ether-à-go-go-related gene (hERG) potassium channel (Q12809 whole entry, looked up): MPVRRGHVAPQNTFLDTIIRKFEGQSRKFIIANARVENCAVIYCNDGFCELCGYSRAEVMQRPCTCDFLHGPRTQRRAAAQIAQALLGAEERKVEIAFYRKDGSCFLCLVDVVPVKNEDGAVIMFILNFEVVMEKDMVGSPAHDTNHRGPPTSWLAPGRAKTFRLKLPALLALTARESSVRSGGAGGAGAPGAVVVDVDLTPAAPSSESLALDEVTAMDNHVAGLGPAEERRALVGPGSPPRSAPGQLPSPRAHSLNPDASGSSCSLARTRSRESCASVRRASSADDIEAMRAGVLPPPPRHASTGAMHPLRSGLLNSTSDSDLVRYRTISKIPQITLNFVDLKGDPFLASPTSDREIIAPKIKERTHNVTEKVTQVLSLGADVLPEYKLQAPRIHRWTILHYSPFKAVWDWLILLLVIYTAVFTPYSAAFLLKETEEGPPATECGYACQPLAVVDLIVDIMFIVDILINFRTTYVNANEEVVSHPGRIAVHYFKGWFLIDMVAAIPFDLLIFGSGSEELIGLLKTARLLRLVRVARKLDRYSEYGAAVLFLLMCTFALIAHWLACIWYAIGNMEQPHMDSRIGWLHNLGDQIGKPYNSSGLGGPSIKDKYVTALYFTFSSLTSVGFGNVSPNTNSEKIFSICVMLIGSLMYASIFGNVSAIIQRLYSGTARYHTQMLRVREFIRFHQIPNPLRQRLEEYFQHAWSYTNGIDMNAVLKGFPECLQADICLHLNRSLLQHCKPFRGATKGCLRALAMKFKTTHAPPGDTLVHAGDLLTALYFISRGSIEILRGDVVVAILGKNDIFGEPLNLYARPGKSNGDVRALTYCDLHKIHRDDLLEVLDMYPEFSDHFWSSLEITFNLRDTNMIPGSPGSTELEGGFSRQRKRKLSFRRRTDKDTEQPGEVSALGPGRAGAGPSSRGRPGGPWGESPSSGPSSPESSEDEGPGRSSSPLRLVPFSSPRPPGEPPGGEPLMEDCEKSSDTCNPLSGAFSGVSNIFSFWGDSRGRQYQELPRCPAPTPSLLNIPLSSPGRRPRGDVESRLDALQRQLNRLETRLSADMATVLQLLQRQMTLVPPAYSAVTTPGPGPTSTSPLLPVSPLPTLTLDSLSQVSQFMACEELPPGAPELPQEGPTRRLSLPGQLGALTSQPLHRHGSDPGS

Structure (SMILES) | hERG current change (%, negative = inhibition) at 1uM
COc1ccc(OC)c(S(=O)(=O)n2cnc3cc(C)c(C)cc32)c1 | 15.1%
COc1ccc2nc(NC(=O)C3CCN(S(=O)(=O)c4cccs4)CC3)sc2c1 | 9.25%
O=C(Nc1nnc(COc2ccccc2)s1)Nc1ccccc1F | 14.6%
Oc1ccc(Cl)cc1CNc1cnc2ccccc2c1 | 16.4%
CCOc1ccc(C(=O)Oc2cc(C)[nH]c(=O)c2[N+](=O)[O-])cc1OCC | 19.6%
COc1ccc(C)cc1N(C(=O)c1ccccc1)c1nc2ccccc2s1 | 11.5%
Cc1cc(C)cc(NC(=O)Cn2nnc(C(=O)NCc3ccc4c(c3)OCO4)c2N)c1 | 14.3%
CC1(C)Cc2c(cnn2-c2ccccc2)C(NC(=O)c2ccoc2)C1 (centres unmarked) | -91.7%
CC(=O)c1ccc(NC(=O)COC(=O)c2ccccc2N=Nc2ccc(N(C)C)cc2)cc1 | 11.2%
COc1ccccc1N1CCN(C2CCCN(S(=O)(=O)c3cccc(Cl)c3)C2)CC1 (centres unmarked) | 3.58%
Nc1ccccc1C(=O)NCCN1CCNC1=O | 15.2%
COc1cccc(CN2CC(O)=C(c3nc(-c4ccc(Cl)cc4)cs3)C2=N)c1 | 1.11%
O=C(c1ccsc1)N1CCCC(N2CCOCC2)C1 (centres unmarked) | 14%
CC(C(=O)N1CCN(c2ccc(Cl)cc2)CC1)c1ncc(C(F)(F)F)cc1Cl (centres unmarked) | -7.58%
CCCCCCOc1ccc(C(CC(=O)O)C(N)=O)cc1 (centres unmarked) | -7.35%
O=C(NC(=O)c1cccc(F)c1)OC[C@@H]1CCCN2CCCC[C@H]12 | -13.4%
O=C(NCc1cccc(Cl)c1)C1CCCO1 (centres unmarked) | 10.4%
CCOC(=O)C1CCN(C/C=C/c2ccccc2[N+](=O)[O-])CC1 | -57%
CN(C)CCN=Cc1c(O)n(Cc2ccc3c(c2)OCO3)c(=O)c2ccccc12 | 1.28%
O=C(NCCCN1CCN(c2ccc(F)cc2)CC1)NC12CC3CC(CC(C3)C1)C2 | -16.4%
CCOC(=O)C1=C(CS(=O)(=O)c2ccc(C)c(C)c2)NC(=O)NC1c1ccc(O)cc1 (centres unmarked) | 14.1%
Cc1ccc(C)c(CNC(=O)Nc2ccccc2)c1 | 18.7%
CCOC(=O)CSCC(=O)Nc1cc(C)ccc1C | 5.86%

Structure (SMILES) | hERG current change (%, negative = inhibition) at 1uM
O=C(Nc1ccccc1N1CCCC1)c1cccnc1 | -0.676%
COc1ccc(CCn2c(C)cc(C(=O)CN3C(=O)C(=O)N(Cc4ccco4)C3=O)c2C)cc1 | 4.85%
CCOc1ccc(N(CC(=O)NC2CC3CCC2C3)S(=O)(=O)c2ccccc2)cc1 (centres unmarked) | 20.5%
CS(=O)(=O)c1ccc([C@@H](O)[C@@H](CO)NC(=O)C(Cl)Cl)cc1 | 7.93%
Cc1nnc(SCC(=O)N2CCN(C(=O)c3ccco3)CC2)n1C | 8.57%
Cc1cc(=O)oc2cc(OCC(=O)Nc3ccc4[nH]c(=O)[nH]c4c3)ccc12 | 11.6%
COc1ccc(OC)c(S(=O)(=O)N2CCC3(CC2)OCCN3S(=O)(=O)c2ccccc2)c1 | 7.55%
Cc1ccc(C(=O)N2CCN3C(=O)c4ccccc4C23c2ccc(Cl)cc2)cc1 (centres unmarked) | 4.31%
COc1ccc(-n2nc([N+](=O)[O-])c(=NCCC3=CCCCC3)n2O)cc1 | -8.78%
COc1cccc2c1NC(C(=O)O)C1CC=CC21 (centres unmarked) | 8.98%
N=c1c(C(=O)NC2CCCC2)cc2c(=O)n3ccccc3nc2n1CC1CCCO1 (centres unmarked) | -94.4%
Cc1ccc2nc(N/C(N)=N/S(=O)(=O)c3ccc([N+](=O)[O-])cc3)nc(C)c2c1 | 1.77%
O=C(Cn1nc(C(=O)O)c2ccccc2c1=O)NCCC1=CCCCC1 | -2.32%
c1cncc(-c2nc(N3CCOCC3)c3ccccc3n2)c1 | 8.76%
COC(=O)CCCC1=CC2=C(c3ccccc3)C(=O)C(C)(OC(=O)C3CCCC3)C(=O)C2=CN1C(CO)CO (centres unmarked) | 9.98%
COc1ccc(OC)c(C(=O)N2CCC(CCC(=O)NC3CC3)CC2)c1 | 12.7%
COc1ccccc1-c1cc(C(F)(F)F)nc(N2CCN(c3ccc(F)cc3)CC2)n1 | 30.7%
CC1Sc2ccc(S(=O)(=O)CCC(=O)N(C)Cc3ccco3)cc2NC1=O (centres unmarked) | 8.19%
Cc1ccc(OCCNC(=O)CCNS(=O)(=O)c2ccc3ccccc3c2)cc1 | 12.7%
O=c1[nH]c(=S)[nH]nc1Cc1ccc(Cl)c(Cl)c1 | 17.4%
Cc1ccc(NC(=O)/C(=C\c2ccccc2)NC(=O)/C=C/c2ccccc2)cc1 | -4.35%
CCOc1cc(N2CCOCC2)c(OCC)cc1NC(=O)c1ccc(S(=O)(=O)N(C)C)cc1 | 10.8%
Cc1cc(C)c(S(=O)(=O)NCC(=O)NCc2ccco2)c(C)c1 | 7.56%

Structure (SMILES) | hERG current change (%, negative = inhibition) at 1uM
Cc1cc(Cl)nc(Cl)c1C(=O)N1CCOCC1 | 8.58%
COc1ccc(-c2ccc(-c3nnn(CC(C)=O)n3)cc2)cc1 | 5.98%
CC(C)OC(=O)CSc1nnc(-c2ccccn2)n1-c1ccccc1 | 1.56%
Cc1ccc(S(=O)(=O)Nc2ccc(-n3cnnn3)cc2)c(C)c1 | -0.244%
CCOc1ccccc1CN1CCN(CC2CC2)CC1CCO (centres unmarked) | 9.15%
Cc1cc(/C=N/NC(=O)c2cc3ccccc3o2)c(C)n1C | 32.5%
CCOC(=O)c1cnc2ccc(Cl)cc2c1N1CCN(C)CC1 | -0.805%
CC(C)c1nc2cc3ccccc3cc2[nH]1 | 5.19%
Cc1occc1-c1nnc(SCC(=O)N2CCN(c3ccccc3F)CC2)n1C | 8.49%
O=C(Cc1cccs1)NC1CCCC1 | 12.6%
COc1cc(NC(=O)C2CCCO2)c(OC)cc1Cl (centres unmarked) | 5.44%
CC1(C)CCC(=O)C=C1Nc1ccc(F)c(Cl)c1 | 15.5%
O=C(CCc1ccc(O)cc1)N1C[C@H]2C[C@@H](C1)c1cccc(=O)n1C2 | 14.1%
COCc1nnc(NS(=O)(=O)c2ccc([N+](=O)[O-])cc2)s1 | 0.334%
CC(C)NC(=S)NC(=O)c1ccc(Cl)cc1Cl | 14.6%
COc1ccc(C2SCC(=O)Nc3c2c(C)nn3-c2ccccc2)cc1OC (centres unmarked) | 15.4%
Cc1sc2nc(CN(Cc3cccs3)C(=O)NC3CCCCC3)[nH]c(=O)c2c1C | 6.83%
CCOc1ccc(Oc2ccccc2NC(=O)C2=COCCO2)cc1 | 0.808%
NS(=O)(=O)c1ccc(CCNC(=O)CNC(=O)c2ccccc2F)cc1 | 11.3%
NS(=O)(=O)c1ccc(NC(=S)N2CCc3ccccc32)cc1 | 8.15%
S=C(Nc1ccc2cn[nH]c2c1)Nc1ccc(Cl)cc1Cl | 3.93%
O=C(Nc1nsc(-c2ccccc2)n1)c1ccncc1 | 13%
Cc1ccc2cc(C)c(SCC(=O)NCC3CCCO3)nc2c1 (centres unmarked) | 12.7%

Structure (SMILES) | hERG current change (%, negative = inhibition) at 1uM
CCOC(=O)N(C)c1ccc(C(O)(C(=O)OC)C(F)(F)F)cc1 (centres unmarked) | 18.8%
COc1ccc(S(=O)(=O)N2CCC(C(=O)NCCC(=O)Nc3ccc(Cl)cc3)CC2)cc1 | 8.94%
CS(=O)(=O)N(CC(=O)N1CCCCCC1)c1ccc(Br)cc1 | 9.5%
Cc1ccc(C)c(-n2c(CNC(=O)c3ccco3)nnc2SCC(=O)Nc2nnc(C)s2)c1 | 18.6%
Cc1ccccc1OCC(=O)N/N=C/c1sc(=O)n(Cc2cccc(C(=O)O)c2)c1Cl | 12.1%
CCNC(=S)N1CCN(c2nc(-c3ccc(F)cc3)cs2)CC1 | 13.7%
O=C1NCCCC1C(=O)N1CCCCC1 (centres unmarked) | 11.6%
COc1cc(/C=N/n2cnnc2)ccc1OC(=O)N(C)C | 13.4%
CC(=O)N1CCN(CC(=O)Nc2c(Cl)ccc(C)c2Cl)CC1 | 10.5%
C/C(Cc1ccccc1)=N\NC(=O)c1cccnc1 | 11.4%
CC(C)(C)C(=O)COC(=O)c1cc2ccccc2cc1O | 11.7%
CC[C@H](C)[C@@H]1NC(=O)c2cc([N+](=O)[O-])cc(I)c2SC[C@@H](C(N)=O)NC(=O)[C@H](CCCCN)NC1=O | -6.25%
CC(C(=O)NCC1(c2ccccc2)CCCC1)N1CCOCC1 (centres unmarked) | 4.66%
O=S1(=O)CCOCCN1Cc1ccc(Cl)cc1Cl | 3.48%
CCc1ccc(NC(=O)CCc2nnc3ccc(N4CCCC4)nn23)cc1 | 22.2%
CC(=O)NC(C(=O)c1ccccc1)C(=O)c1ccccc1 | 7.64%
C/C(=N\NC(=O)C(C)Nc1cccc(Cl)c1)c1ccc([N+](=O)[O-])cc1 (centres unmarked) | -8.04%
CCn1c(=NC(=O)CCS(=O)(=O)c2ccccc2)sc2cccc(OC)c21 | 7.7%
COC(=O)c1cc(OC)c(OC)cc1NC(=O)C(C)c1ccc([N+](=O)[O-])cc1 (centres unmarked) | 8.84%
O=S(=O)(Nc1ccccc1Cl)c1ccc2[nH]c(=S)oc2c1 | 12.8%
